Reference: the supplement of paper PMC4967469
Lines with a small IC50 respond at low doses; where the fit passes the top or lowest dose, that dose stands as a limit. AUC sums up the same curve from the lowest dose to the 256-fold higher top dose: 1 means no effect, lower means more sensitive. A top dose marked as inferred was derived from the fitted curves, not read from the paper.

Compound: CC1=C(C(=O)Nc2cc3cn[nH]c3cc2F)C(c2ccc(C(F)(F)F)cc2)CC(=O)N1 [GSK429286A]
Assay: Viability of human cancer cell lines after 72 h of drug (GDSC screen)
Conditions: top dose inferred
Procedure: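 Human cancer cell lines in 384-well plates, medium with 10% serum, drug for 72 h over a 256-fold dose range (nine 2-fold or five 4-fold steps up to the top dose). Adherent lines were fixed and stained with the nucleic acid dye Syto60, suspension lines read with resazurin; signal relative to control wells, capped at 0 and 100%. One two-parameter sigmoid per drug and line, fitted in a mixed model over all curves with the slope shared within a line.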

| Cell Line | AUC | IC50 |
| --- | --- | --- |
| GI-ME-N (neuroblastoma, adherent, top dose 20 µM) | 0.705 | 5.91 µM |
| GMS-10 (glioma, adherent, top dose 20 µM) | 0.984 | > 20 µM |
| GOTO (neuroblastoma, adherent, top dose 20 µM) | 0.967 | > 20 µM |
| GP5d (large intestine, adherent, top dose 20 µM) | 0.991 | > 20 µM |
| GR-ST (lymphoblastic leukaemia, suspension, top dose 20 µM) | 0.947 | > 20 µM |
| GRANTA-519 (B-cell lymphoma, suspension, top dose 20 µM) | 0.969 | > 20 µM |
| GT3TKB (stomach, adherent, top dose 20 µM) | 0.985 | > 20 µM |
| H4 (glioma, adherent, top dose 20 µM) | 0.973 | > 20 µM |
| H9 (lymphoid neoplasm, suspension, top dose 20 µM) | 0.988 | > 20 µM |
| H290 (mesothelioma, adherent, top dose 20 µM) | 0.989 | > 20 µM |
| H513 (mesothelioma, semi-adherent, top dose 20 µM) | 0.974 | > 20 µM |
| H2369 (mesothelioma, adherent, top dose 20 µM) | 0.981 | > 20 µM |
| H2373 (mesothelioma, adherent, top dose 20 µM) | 0.966 | > 20 µM |
| H2461 (mesothelioma, adherent, top dose 20 µM) | 0.965 | > 20 µM |
| H2591 (mesothelioma, adherent, top dose 20 µM) | 0.943 | > 20 µM |
| H2595 (mesothelioma, adherent, top dose 20 µM) | 0.96 | > 20 µM |
| H2722 (mesothelioma, adherent, top dose 20 µM) | 0.896 | > 20 µM |
| H2731 (mesothelioma, adherent, top dose 20 µM) | 0.956 | > 20 µM |
| H2795 (mesothelioma, adherent, top dose 20 µM) | 0.95 | > 20 µM |
| H2803 (mesothelioma, adherent, top dose 20 µM) | 0.974 | > 20 µM |
| H2804 (mesothelioma, adherent, top dose 20 µM) | 0.965 | > 20 µM |

| Cell Line | AUC | IC50 |
| --- | --- | --- |
| H2818 (mesothelioma, adherent, top dose 20 µM) | 0.974 | > 20 µM |
| H2869 (mesothelioma, adherent, top dose 20 µM) | 0.818 | 14.8 µM |
| H3118 (head and neck, adherent, top dose 20 µM) | 0.956 | > 20 µM |
| H3255 (lung adenocarcinoma, adherent, top dose 20 µM) | 0.982 | > 20 µM |
| H-EMC-SS (chondrosarcoma, adherent, top dose 20 µM) | 0.942 | > 20 µM |
| HA7-RCC (kidney, adherent, top dose 20 µM) | 0.976 | > 20 µM |
| HAL-01 (lymphoblastic leukaemia, suspension, top dose 20 µM) | 0.956 | > 20 µM |
| HARA (lung squamous cell carcinoma, adherent, top dose 20 µM) | 0.871 | > 20 µM |
| HC-1 (hairy cell leukaemia, suspension, top dose 20 µM) | 0.972 | > 20 µM |
| HCC38 (breast, adherent, top dose 20 µM) | 0.958 | > 20 µM |
| HCC202 (breast, adherent, top dose 20 µM) | 0.874 | > 20 µM |
| HCC1143 (breast, adherent, top dose 20 µM) | 0.979 | > 20 µM |
| HCC1187 (breast, suspension, top dose 20 µM) | 0.921 | > 20 µM |
| HCC1395 (breast, adherent, top dose 20 µM) | 0.974 | > 20 µM |
| HCC1419 (breast, adherent, top dose 20 µM) | 0.967 | > 20 µM |
| HCC1428 (breast, adherent, top dose 20 µM) | 0.985 | > 20 µM |
| HCC1500 (breast, adherent, top dose 10.24 µM) | 0.988 | > 10.2 µM |
| HCC1569 (breast, adherent, top dose 20 µM) | 0.954 | > 20 µM |
| HCC1599 (breast, suspension, top dose 20 µM) | 0.958 | > 20 µM |
| HCC1806 (breast, adherent, top dose 20 µM) | 0.988 | > 20 µM |
| HCC1937 (breast, adherent, top dose 20 µM) | 0.985 | > 20 µM |

| Cell Line | AUC | IC50 |
| --- | --- | --- |
| HCC1954 (breast, adherent, top dose 20 µM) | 0.985 | > 20 µM |
| HCC2157 (breast, suspension, top dose 20 µM) | 0.975 | > 20 µM |
| HCC2218 (breast, suspension, top dose 20 µM) | 0.968 | > 20 µM |
| HCC2998 (large intestine, adherent, top dose 20 µM) | 0.981 | > 20 µM |
| HCC-15 (lung squamous cell carcinoma, adherent, top dose 20 µM) | 0.967 | > 20 µM |
| HCC-33 (small cell lung carcinoma, adherent, top dose 20 µM) | 0.931 | > 20 µM |
| HCC-44 (lung adenocarcinoma, adherent, top dose 20 µM) | 0.955 | > 20 µM |
| HCC-56 (large intestine, adherent, top dose 20 µM) | 0.987 | > 20 µM |
| HCC-78 (lung adenocarcinoma, adherent, top dose 20 µM) | 0.983 | > 20 µM |
| HCC-827 (lung adenocarcinoma, adherent, top dose 20 µM) | 0.984 | > 20 µM |
| HCE-4 (oesophagus, adherent, top dose 20 µM) | 0.986 | > 20 µM |
| HCT-15 (large intestine, adherent, top dose 20 µM) | 0.984 | > 20 µM |
| HCT-116 (large intestine, adherent, top dose 20 µM) | 0.956 | > 20 µM |
| HD-MY-Z (Hodgkin lymphoma, adherent, top dose 20 µM) | 0.945 | > 20 µM |
| HDLM-2 (Hodgkin lymphoma, suspension, top dose 20 µM) | 0.979 | > 20 µM |
| HDQ-P1 (breast, adherent, top dose 20 µM) | 0.983 | > 20 µM |
| HEC-1 (endometrium, adherent, top dose 20 µM) | 0.989 | > 20 µM |
| HEL (acute myeloid leukaemia, semi-adherent, top dose 20 µM) | 0.953 | > 20 µM |
| HGC-27 (stomach, adherent, top dose 20 µM) | 0.983 | > 20 µM |
| HH (T-cell leukaemia, suspension, top dose 20 µM) | 0.912 | > 20 µM |
| HL-60 (acute myeloid leukaemia, suspension, top dose 20 µM) | 0.896 | > 20 µM |

| Cell Line | AUC | IC50 |
| --- | --- | --- |
| HLE (liver, adherent, top dose 20 µM) | 0.972 | > 20 µM |
| HMV-II (melanoma, adherent, top dose 20 µM) | 0.971 | > 20 µM |
| HN (head and neck, adherent, top dose 20 µM) | 0.979 | > 20 µM |
| HO-1-N-1 (head and neck, adherent, top dose 20 µM) | 0.986 | > 20 µM |
| HO-1-u-1 (head and neck, adherent, top dose 20 µM) | 0.982 | > 20 µM |
| HOP-62 (lung adenocarcinoma, adherent, top dose 20 µM) | 0.984 | > 20 µM |
| HOP-92 (large cell lung carcinoma, adherent, top dose 20 µM) | 0.984 | > 20 µM |
| HOS (osteosarcoma, adherent, top dose 20 µM) | 0.992 | > 20 µM |
| HPAC (pancreas, adherent, top dose 20 µM) | 0.977 | > 20 µM |
| HPAF-II (pancreas, adherent, top dose 20 µM) | 0.981 | > 20 µM |
| HSC-2 (head and neck, adherent, top dose 20 µM) | 0.984 | > 20 µM |
| HSC-3 (head and neck, adherent, top dose 20 µM) | 0.987 | > 20 µM |
| HSC-4 (head and neck, adherent, top dose 20 µM) | 0.972 | > 20 µM |
| HSC-39 (stomach, suspension, top dose 20 µM) | 0.97 | > 20 µM |
| HT55 (large intestine, adherent, top dose 20 µM) | 0.99 | > 20 µM |
| HT (B-cell lymphoma, suspension, top dose 20 µM) | 0.975 | > 20 µM |
| HT-3 (cervix, adherent, top dose 20 µM) | 0.983 | > 20 µM |
| HT-29 (large intestine, adherent, top dose 20 µM) | 0.982 | > 20 µM |
| HT-115 (large intestine, adherent, top dose 20 µM) | 0.973 | > 20 µM |
